The record followed here is patent US20220363731A1 (LETO LABORATORIES, published 2022).

Positions count from the first letter of the chain named. Names may count otherwise.

Assay [1] addresses T1, IL2Rβγ-Fc (UniProt P14784 27-240; P31785 23-262, limits assumed).
T1 construct: From Beijing Zhidao Biotechnology, loaded on ProA sensors; also called IL2Rβγ receptors; complex of β and γ receptor subunits; not shown: Fc
T1 sequence (looked up) 1: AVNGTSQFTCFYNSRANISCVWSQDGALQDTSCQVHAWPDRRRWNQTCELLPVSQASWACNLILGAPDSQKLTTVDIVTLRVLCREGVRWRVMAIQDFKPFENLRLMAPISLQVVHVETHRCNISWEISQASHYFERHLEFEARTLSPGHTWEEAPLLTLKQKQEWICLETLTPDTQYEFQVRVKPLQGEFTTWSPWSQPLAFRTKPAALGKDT
T1 sequence (looked up) 2: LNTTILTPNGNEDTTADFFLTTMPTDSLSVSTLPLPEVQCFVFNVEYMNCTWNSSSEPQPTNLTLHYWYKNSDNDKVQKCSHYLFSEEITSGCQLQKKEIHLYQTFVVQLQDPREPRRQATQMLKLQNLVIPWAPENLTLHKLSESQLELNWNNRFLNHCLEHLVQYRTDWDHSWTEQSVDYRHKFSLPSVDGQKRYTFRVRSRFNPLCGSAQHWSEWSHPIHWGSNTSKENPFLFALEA
In words: BLI (Fortebio Octet RED96), IL2Rβγ-Fc loaded on ProA sensor, analyte 2.5-40 nM as labelled; R2 0.9926. How it is done: (§1) IL2Rβγ-Fc was diluted with the buffer solution to a concentration of 10 μg/mL, and then added to column 2 of the 96-well assay plate. The program was set to Loading, 600 s.
(§2) They were added to columns 5-9 of the 96-well assay plate, respectively. The program was set to Association, 200 s. The buffers were added to columns 1, 4, 10 and 11 of the 96-well assay plate, and the glycine with pH 1.7 was added to column 12. The loading volume of the above samples or solutions was 200 μL.
(§3) 8 ProA sensors were respectively placed in A-H of column 1 of the sensor holder. In the software Data acquisition 11.0, the detection conditions were set as follows. 1 Pre-wetting: Baseline, 60 s, Position: Column 1. 2 Cycle detection: column 2: loading, 600 s; column 4: Baseline 1, 60 s; columns 5-9: Association, 200 s; column 10: Dissociation, 600 s; column 11: neutralization; and column 12: regeneration.
On the technique in general: Biolayer interferometry detects binding as a change in optical thickness at a sensor tip.

Assay [2] deals with T1, IL2Rβγ-Fc. In words: BLI (Fortebio Octet RED96), IL2Rβγ-Fc loaded on ProA sensor, analyte 1.25-40 nM; R2 0.9982. How it is done: The buffer formulation was as follows: 10 mM HEPES, 150 mM sodium chloride, 3 mM EDTA, 0.1% BSA and 0.05% Tween 20. The ProA sensor was purchased from Pall Fortebio (Cat. No. #18-5010). The HISIK sensor was purchased from Pall Fortebio (Cat. No. #18-5120). The BLI equipment was Octet RED96 from Pall Fortebio. Data acquisition and analysis were carried out using software Data acquisition 11.0 and Data Analysis 11.0, respectively.
as §1, §3

Assay [3] addresses T1, IL2Rβγ-Fc. In words: BLI (Fortebio Octet RED96), IL2Rβγ-Fc loaded on ProA sensor, analyte 1.25-40 nM; R2 0.9985. How it is done:
as §1, §2, §3

B1: IL-2 Complex 1: IL-2 (C125A, T41C) Pair 1 with CD25-ECD (N27C) Pair 1 (other)
chain 1: [omitted - about 150 residues]
chain 2: ELCDDDPPEIPHATFKAMAYKEGTMLCCECKRGFRRIKSGSLYMLCTGNSSHSSWDNQCQCTSSATRNTTKQVTPQPEEQKERKTTEMQSPMQPVDQASLPGHCREPPPWENEATERIYHFVVGQMVYYQCVQGYRALHRGPAESVCKMTHGKTRWTQPQLICTG
notes: IL-2/CD25-ECD heterodimer from co-expression in HEK293, designed to be joined by an intermolecular disulfide bond between IL-2 Cys41 and CD25-ECD Cys27
In the case of B1, binding with IL2Rβγ-Fc [1] was characterised by a dissociation constant (Kd) of 517 pM.

B2: IL-2 Complex 4: IL-2 (C125A, Y45C) Pair 4 with CD25-ECD (R35C) Pair 4 (other)
chain 1: [omitted - about 150 residues]
chain 2: B1 chain 2 with C27N, R35C
notes: IL-2/CD25-ECD heterodimer from co-expression in HEK293, designed to be joined by an intermolecular disulfide bond between IL-2 Cys45 and CD25-ECD Cys35
Turning to B2, the Kd in the assay with IL2Rβγ-Fc [2] stood at 253 pM. This counts as sub-nanomolar.

B3: IL-2 Complex 2: IL-2 (C125A, P34C) Pair 2 with CD25-ECD (D4C) Pair 2 (other)
chain 1: [omitted - about 150 residues]
chain 2: B1 chain 2 with D4C, C27N
notes: IL-2/CD25-ECD heterodimer from co-expression in HEK293, designed to be joined by an intermolecular disulfide bond between IL-2 Cys34 and CD25-ECD Cys4
Take B3: the Kd with IL2Rβγ-Fc [3] came out at 308 pM.

As a reminder, the Kd is the free concentration of one partner at which half of the binding sites on the other are occupied at equilibrium, for simple one-to-one binding. Read a low Kd as higher affinity.
